The source of these data is patent publication US20250263499A1 (SHENGHE CHINA BIOPHARMACEUTICAL, published 2025).

In the assay the target is T1, human CD24 protein (ACRO) (human, UniProt P25063 27-59).
T1 construct: also called analyte human CD24 protein
T1 chain (looked up): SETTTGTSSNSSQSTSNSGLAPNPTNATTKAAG
The assay can be described thus: BLI (ForteBio Octet RED96e), antibody immobilised, human CD24 protein as analyte. The method, then: ForteBio […] (BLI) was used to detect the affinity of humanized antibodies. The sample to be tested (solidified) was diluted to 20 μg/mL with 0.02% PBST (buffer). The analyte human CD24 protein (ACRO) was diluted to 100 nM with 0.02% PBST (buffer) as the initial concentration, and then diluted by double gradient for 7 gradients starting from this concentration, and a negative control (buffer) was performed.
The molecular interaction analysis instrument (ForteBio; Octet RED96e) was operated, and 200 μL of curing buffer (0.02% PBST) was added to a pre-wetted plate, and the sensor was pre-wetted for 5-10 min. Diluted samples and other reagents for assay were added into wells in the sample plate corresponding to the pre-wetted sensor.
(BLI is a label-free optical method that tracks binding on a fibre tip over time.)

Where a chain is given by its changes, count along the chain named.

B1: humanized antibody hu-02-L2H6 (antibody, human IgG1, kappa)
heavy: EVQLQESGPGLVKPSQTLSLTCTVSGYSITSGYTWHWIRQFPGNKLEWIGHIQYTGNTKYNPSLESRVTISVDTSKNQFSLKLSSVTAADTATYYCARGSTNSNDYWGQGTLVTVSS[human IgG1 constant region not written out]
light: DIVMTQSPDSLAVSLGERATINCKSSQSLLYSNDQKNYLAWYQQKPGQSPKLLIYWASTRESGVPDRFSGSGSGTDFTLTISSLQAEDVAVYYCQQYFIYPLTFGGGTKLELKRTVAAPSVFIFPPSDEQLKSGTASVVCLLNNFYPREAKVQWKVDNALQSGNSQESVTEQDSKDSTYSLSSTLTLSKADYEKHKVYACEVTHQGLSSPVTKSFNRGEC
notes: Humanized from ms-02: light chain L2, heavy chain H6
The Kd is the equilibrium constant for the complex coming apart. A lower Kd goes with tighter binding. B1 came in with a Kd of 25.8 nM.

B2: humanized antibody hu-02-L2H4 (antibody, human IgG1, kappa)
heavy: B1 heavy with E1Q, F41H
light: B1 light
notes: Humanized from ms-02: light chain L2, heavy chain H4
Consider B2, for which binding was put at a Kd of 27.9 nM.

B3: humanized antibody hu-02-L3H4 (antibody, human IgG1, kappa)
heavy: B1 heavy with E1Q, F41H
light: B1 light with D9S
notes: Humanized from ms-02: light chain L3, heavy chain H4
B3 came in with a Kd of 32.6 nM.

B4: humanized antibody hu-02-L2H7 (antibody, human IgG1, kappa)
heavy: B1 heavy with V68I, V72R
light: B1 light
notes: Humanized from ms-02: light chain L2, heavy chain H7
Consider B4, for which the Kd amounted to 12.3 nM. This Kd lies about 2.7-fold lower than the previous one.

B5: humanized antibody hu-02-L3H1 (antibody, human IgG1, kappa)
heavy: B1 heavy with E1Q, F41H, N44K, K45G, T93V
light: B1 light with D9S
notes: Humanized from ms-02: light chain L3, heavy chain H1
In turn, B5 had a Kd of 44.7 nM.

B6: humanized antibody hu-02-L2H8 (antibody, human IgG1, kappa)
heavy: B1 heavy with I49M, V68I, V72R
light: B1 light
notes: Humanized from ms-02: light chain L2, heavy chain H8
Molecule B6 had a Kd of 8.23 nM.

B7: humanized antibody hu-02-L2H3 (antibody, human IgG1, kappa)
heavy: B1 heavy with E1Q, F41H, K45G
light: B1 light
notes: Humanized from ms-02: light chain L2, heavy chain H3
As for B7, the Kd was found to be 32.5 nM. Compared with the last molecule, the Kd is about 3.9-fold higher.

B8: humanized antibody hu-02-L3H3 (antibody, human IgG1, kappa)
heavy: B1 heavy with E1Q, F41H, K45G
light: B1 light with D9S
notes: Humanized from ms-02: light chain L3, heavy chain H3
B8 had a Kd of 43.5 nM. This Kd and that of the molecule before are within 1.5-fold of each other.

B9: humanized antibody hu-02-L2H1 (antibody, human IgG1, kappa)
heavy: B1 heavy with E1Q, F41H, N44K, K45G, T93V
light: B1 light
notes: Humanized from ms-02: light chain L2, heavy chain H1
B9: the Kd was 32.7 nM.

B10: humanized antibody hu-02-L3H8 (antibody, human IgG1, kappa)
heavy: B1 heavy with I49M, V68I, V72R
light: B1 light with D9S
notes: Humanized from ms-02: light chain L3, heavy chain H8
Molecule B10 displayed a Kd of 10 nM. This Kd lies about 3.3-fold lower than the previous one.

B11: humanized antibody hu-02-L2H2 (antibody, human IgG1, kappa)
heavy: B1 heavy with E1Q, F41H, N44K, K45G
light: B1 light
notes: Humanized from ms-02: light chain L2, heavy chain H2
As for B11, binding was put at a Kd of 35.8 nM. This Kd is about 3.6-fold higher than that of the molecule before.

B12: humanized antibody hu-02-L3H5 (antibody, human IgG1, kappa)
heavy: B1 heavy with E1Q
light: B1 light with D9S
notes: Humanized from ms-02: light chain L3, heavy chain H5
With B12, the Kd came out at 24.5 nM.

B13: humanized antibody hu-02-L3H2 (antibody, human IgG1, kappa)
heavy: B1 heavy with E1Q, F41H, N44K, K45G
light: B1 light with D9S
notes: Humanized from ms-02: light chain L3, heavy chain H2
B13 registered a Kd of 22.7 nM.

B14: humanized antibody hu-02-L3H6 (antibody, human IgG1, kappa)
heavy: B1 heavy
light: B1 light with D9S
notes: Humanized from ms-02: light chain L3, heavy chain H6
The molecule B14 returned a Kd of 29.5 nM. This Kd and that of the molecule before are within 1.5-fold of each other.

B15: humanized antibody hu-02-L3H7 (antibody, human IgG1, kappa)
heavy: B1 heavy with V68I, V72R
light: B1 light with D9S
notes: Humanized from ms-02: light chain L3, heavy chain H7
With B15, binding was put at a Kd of 13.5 nM.
